About 31,000 (8.9%) of roughly 350,000 compounds were called active. Inconclusive results, whose numbers are uncertain, are shown with a selection of clear calls. Calls come from the whole dose curve; as a rule, active = well fitted inhibition curve with a large enough effect; inconclusive = small, poorly fitted or top-dose-only effect; inactive = no such curve, though single readings can be large or run the other way. Where the call is inconclusive, the potency comes from a doubtful curve fit.
These molecules were tested against Histone-lysine N-methyltransferase EHMT2 (Homo sapiens) (UniProt Q96KQ7) (assay: qHTS Assay for Inhibitors of Histone Lysine Methyltransferase G9a). Settings: G9a H3K9 monomethylation, AlphaScreen, 2 h; activity, negative = inhibition: at 59 µM (top of the series) unless noted.
Chain of UniProt Q96KQ7 (Q96KQ7 whole entry, looked up): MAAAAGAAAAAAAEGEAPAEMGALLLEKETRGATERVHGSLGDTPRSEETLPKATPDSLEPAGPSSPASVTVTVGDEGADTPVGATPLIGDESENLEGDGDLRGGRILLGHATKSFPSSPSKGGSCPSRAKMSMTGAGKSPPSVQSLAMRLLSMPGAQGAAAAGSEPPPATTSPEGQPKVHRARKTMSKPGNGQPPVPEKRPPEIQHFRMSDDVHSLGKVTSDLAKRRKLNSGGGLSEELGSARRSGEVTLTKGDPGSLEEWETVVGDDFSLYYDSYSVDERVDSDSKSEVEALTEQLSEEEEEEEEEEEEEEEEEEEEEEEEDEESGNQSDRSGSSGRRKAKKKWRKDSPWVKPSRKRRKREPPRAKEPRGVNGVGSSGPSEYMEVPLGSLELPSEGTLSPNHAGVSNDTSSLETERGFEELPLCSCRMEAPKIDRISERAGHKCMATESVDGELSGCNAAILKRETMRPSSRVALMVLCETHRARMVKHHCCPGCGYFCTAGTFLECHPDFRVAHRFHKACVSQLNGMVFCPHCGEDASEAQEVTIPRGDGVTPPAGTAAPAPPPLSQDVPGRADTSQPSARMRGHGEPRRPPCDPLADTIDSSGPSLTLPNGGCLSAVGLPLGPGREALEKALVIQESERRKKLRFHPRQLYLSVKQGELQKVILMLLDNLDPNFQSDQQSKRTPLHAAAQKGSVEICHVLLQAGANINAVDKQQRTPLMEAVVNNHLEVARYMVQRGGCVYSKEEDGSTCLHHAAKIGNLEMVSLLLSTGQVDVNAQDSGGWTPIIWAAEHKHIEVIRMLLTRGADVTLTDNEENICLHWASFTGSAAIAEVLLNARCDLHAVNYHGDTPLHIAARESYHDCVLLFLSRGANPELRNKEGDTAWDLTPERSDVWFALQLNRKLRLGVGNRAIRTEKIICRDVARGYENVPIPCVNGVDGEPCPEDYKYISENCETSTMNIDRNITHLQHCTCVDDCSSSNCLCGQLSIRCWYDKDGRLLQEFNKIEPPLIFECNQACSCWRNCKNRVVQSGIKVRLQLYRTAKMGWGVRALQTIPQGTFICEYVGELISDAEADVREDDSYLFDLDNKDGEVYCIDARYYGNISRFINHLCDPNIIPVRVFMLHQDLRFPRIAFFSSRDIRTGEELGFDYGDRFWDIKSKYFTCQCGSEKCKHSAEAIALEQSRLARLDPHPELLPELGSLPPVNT
How it was run: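 AlphaScreen detection with an anti-monomethyl H3K9 antibody quantified product after a 2 h room-temperature reaction containing 500 nM biotinylated H3K9 peptide, 20 µM SAM and 20 nM enzyme, which had been preincubated 15 min with compound.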
% is set by controls: 0 for no effect and ±100 for the full control effect; potency is the fitted concentration of half-maximal effect; tags give direction and shape of the fitted curve.
Note: nearly all actives have a fitted effect of over 75% in size.

| SMILES | Potency | activity, negative = inhibition |
| --- | --- | --- |
| CC(C(=O)NCCCn1ccnc1)(c1ccccc1)c1ccccc1 | inactive | – |
| CCCCC(c1nnnn1CC1CCCO1)N1CCN(Cc2ccccc2)CC1 (stereo unspecified) | inconclusive: 39.8 µM [inhibitor, single point] | – |
| Cc1ccc(NC(=O)CCn2c(=O)c3cccn3c3ccccc32)cc1Cl | inactive | – |
| CC1(C)Cc2nc3sc4c(SCC(=O)NCc5ccco5)ncnc4c3cc2CO1 | – | inconclusive: -99.6% [inhibitor] |
| CCCCN(C(=O)CSc1n[nH]c(-c2ccc(C)cc2)n1)c1c(N)n(CCCC)c(=O)[nH]c1=O | inactive | – |
| CC(=O)N1CCc2ccc(C(=O)CN3CCN(c4cccc(C)c4C)CC3)cc21 | inconclusive: 22.4 µM [inhibitor, single point] | – |
| CN1C(=O)C(O)(CC(=O)/C=C/c2ccco2)c2ccccc21 (stereo unspecified) | inconclusive: 70.8 µM [inhibitor, partial curve, poor fit] | – |
| COc1cccc(C2CC(c3c(-c4ccccc4)c4cc(Cl)ccc4[nH]c3=O)=NN2S(C)(=O)=O)c1OC (stereo unspecified) | active: 39.8 µM | – |
| CCOC(=O)C1CCCN(C(=O)CSc2ccccc2)C1 (stereo unspecified) | inactive | – |
| CCCCCC(=O)Nc1ccc(C(=O)N/N=C/c2ccc([N+](=O)[O-])cc2)cc1 | inactive | – |
| Cc1ccc(NC(=O)CNCCCN2CCOCC2)cc1S(=O)(=O)N1CCCCC1 | active: 14.1 µM | – |
| CCOC(=O)/C(C#N)=C1/C=CN(C)C=N1 | inconclusive: 8.91 µM [inhibitor, single point] | – |
| Cc1cc(C)cc(N(C(C)C(=O)N2CCCC2)S(C)(=O)=O)c1 (stereo unspecified) | inactive | – |
| CCn1c(SCC(=O)N2CCc3ccccc32)nnc1-c1ccco1 | inconclusive: 56.2 µM [inhibitor, partial curve] | – |
| Cc1cccc(NC(=O)c2cc(-c3ccccn3)nc3ccccc23)c1C | – | inconclusive: -55.8% [inhibitor] |
| COc1ccc(C(=O)c2c(C)oc3cc([N+](=O)[O-])c(O)c([N+](=O)[O-])c23)cc1 | inconclusive: 25.1 µM [inhibitor, single point] | – |
| COc1ccc(OC)c(NC(=O)c2c3c(nc4ccccc24)CCC3)c1 | inconclusive: 79.4 µM [inhibitor, single point] | – |
| CN(C)C(=O)c1ccc(-c2cncnc2NCc2cccnc2)cc1 | – | inactive: 8.32% [at 0.501 µM] |
| Cc1cc(NC(=O)Nc2nnc(N3CCCCC3)s2)ccc1Br | inconclusive: 39.8 µM [inhibitor, single point] | – |
| Cc1noc(NS(=O)(=O)c2ccc(N3CC(O)=C(c4ccccc4)C3=N)cc2)c1C | inconclusive: 89.1 µM [inhibitor, single point] | – |
| C/C(N)=C(/C#N)C(=O)CSc1nc2cc(Cl)ccc2c(=O)n1Cc1ccco1 | inconclusive: 89.1 µM [inhibitor, partial curve, poor fit] | – |
| C=CCOCC(O)Cn1c(N2CCCC2)nc2c1c(=O)[nH]c(=O)n2C (stereo unspecified) | inactive | – |
| CCCCCn1c(=O)[nH]c2cc(C(=O)NC(C)CC)ccc2c1=O (stereo unspecified) | inactive | – |
| CC(C)(C)C(=O)CSc1ncccn1 | inconclusive: 10 µM [inhibitor, partial curve, poor fit] | – |

| SMILES | Potency | activity, negative = inhibition |
| --- | --- | --- |
| Nc1c(N=Nc2ccc(-c3ccc(N=Nc4cc(S(=O)(=O)O)c5ccccc5c4N)cc3)cc2)cc(S(=O)(=O)O)c2ccccc12 | active: 3.55 µM | – |
| O=[N+]([O-])c1ccc(C2=NN(c3ccccc3)C(c3ccco3)C2)cc1 (stereo unspecified) | inconclusive: 35.5 µM [inhibitor, single point] | – |
| CCNc1nc2[nH]c(=O)c3c(c2s1)OC(N)=C(C#N)C3c1ccc(C)cc1 (stereo unspecified) | inconclusive: 39.8 µM [inhibitor, single point] | – |
| COc1ccc(N2CCN(C(=O)CSc3nnc4n3C(C)(C)Cc3ccccc3-4)CC2)cc1 | inconclusive: 3.16 µM [inhibitor, partial curve, poor fit] | – |
| COCCN1CCn2c(nc3cc(Nc4nnc(C)c5ccccc45)ccc32)C1 | – | inconclusive: -81.3% [inhibitor] |
| O=C(CNc1ccc(F)cc1Cl)Nc1cccc(S(=O)(=O)N2CCCCC2)c1 | – | inactive: -0.931% [at 12.7 µM] |
| CC(C)(C)c1ccc(OCCOCCn2c(-c3ccc(Cl)cc3)nc3ccccc3c2=O)cc1 | inconclusive: 1.41 µM [inhibitor, partial curve, poor fit] | – |
| O=C(COC(=O)c1cccc(NC(=O)c2ccc(Br)cc2)c1)c1ccc(Cl)cc1 | inactive | – |
| COc1ccccc1NC(=O)CSc1nnc(COc2ccccc2OC)n1C | inconclusive: 89.1 µM [inhibitor, single point] | – |
| C=CCn1c(COc2cccc(C)c2)nnc1SCC(=O)NC(=O)NCc1ccco1 | inconclusive: 3.16 µM [inhibitor, single point] | – |
| COc1cc(CN2CCC(C(=O)N3CCN(c4ccccc4F)CC3)CC2)cc(OC)c1O | active: 10 µM | – |
| Cc1nc2ccccc2nc1CSc1nncs1 | inconclusive: 1.12 µM [inhibitor, partial curve, poor fit] | – |
| CC(C)Oc1ccc(CNC(=O)C2CCN(Cc3cc4ccccc4n3Cc3ccccc3)CC2)cc1 | inactive | – |
| COc1ccc(Oc2ncc3nc(C)c(=O)n(C)c3n2)cc1 | – | inactive: -2.54% [at 12.7 µM] |
| CN(c1ccccc1)c1ccc(/C=C/[N+](=O)[O-])cc1 | inconclusive: 22.4 µM [inhibitor, partial curve, poor fit] | – |
| CCN(CC)CCCn1c(SCC(=O)NCC2CCCO2)nc2ccccc2c1=O (stereo unspecified) | inconclusive: 89.1 µM [inhibitor, single point] | – |
| CCC/C(=C1/C(=O)CC(C)(C)C(C(=O)OC)C1=O)N1CCCC1 (stereo unspecified) | active: 70.8 µM | – |
| COc1ccc(Cc2nnc(NC(=O)c3ccccc3)s2)cc1OC | inactive | – |
| Cc1cc(Br)cc2c1N(Cc1ccccc1OC(C)C)C(=O)C2=O | active: 8.91 µM | – |
| O=C(C1=C[C@@H](c2ccc(C(F)(F)F)cc2)C[C@@H](OCc2ccc(CO)cc2)O1)N1CCN(Cc2ccccc2)CC1 | – | inconclusive: -88.5% [inhibitor] |
| CCCCc1cc(=O)oc2c(CN3CCCC3)c(O)ccc12 | inconclusive: 50.1 µM [inhibitor, partial curve, poor fit] | – |
| CCN(CC)c1ccc(C=Nc2ccc(N(C)C)cc2)c(O)c1 | active: 0.562 µM | – |
| O=C(CSc1ncn[nH]1)Nc1cc(S(=O)(=O)N2CCCC2)ccc1Cl | inconclusive: 44.7 µM [inhibitor, partial curve, poor fit] | – |
| O=C(/C=C/c1ccccc1)Nc1nc2n(n1)C(c1ccc(F)cc1)C=C(c1ccccc1)N2 (stereo unspecified) | inconclusive: 0.282 µM [inhibitor, partial curve, poor fit] | – |

| SMILES | Potency | activity, negative = inhibition |
| --- | --- | --- |
| O=C(CN1C(=O)NC2NC(=O)NC21)N/N=C/c1ccccc1O (stereo unspecified) | inactive | – |
| COc1ccc(OC)c(-c2nn(-c3ccccc3)cc2C(=O)NCC(c2cccs2)N2CCOCC2)c1 (stereo unspecified) | inconclusive: 79.4 µM [inhibitor, partial curve, poor fit] | – |
| CC(=O)c1ccc(N2CCN(C(=O)c3cccs3)C(C)C2)c(F)c1 (stereo unspecified) | inactive | – |
| O=c1[nH]c(=O)c2ncc(-c3ccc(Cl)cc3)nc2[nH]1 | inconclusive: 89.1 µM [inhibitor, single point] | – |
| Cc1ccc(S(=O)(=O)N/N=C/c2ccc(O)c(O)c2)cc1[N+](=O)[O-] | active: 35.5 µM | – |
| CC(OC(=O)c1cc(=O)[nH]c2ccccc12)C(=O)NCc1ccccc1 (stereo unspecified) | inactive | – |
| CCc1ccc(OCC(=O)NN2Cc3ccccc3C2=N)cc1 | active: 44.7 µM | – |
| CCc1nn2c(=O)c(S(=O)(=O)Nc3ccc(C)c(C)c3)c(C)nc2s1 | inconclusive: 20 µM [inhibitor, partial curve, poor fit] | – |
| COc1ccc(N2CCN(C(CNC(C)=O)c3ccco3)CC2)cc1 (stereo unspecified) | inconclusive: 5.01 µM [inhibitor, partial curve, poor fit] | – |
| Cc1ccc(C(=O)N/C(=C\c2ccco2)C(=O)NCC2CCCO2)cc1C (stereo unspecified) | inconclusive: 14.1 µM [inhibitor, partial curve, poor fit] | – |
| COc1ccc(/C=C2\SC(=S)N(CCC(=O)Nc3ccc(C(=O)O)cc3)C2=O)cc1OC | inactive | – |
| CCCn1c(C2CCCN2c2nc(-c3ccc(C)cc3)cs2)nc2ccccc21 (stereo unspecified) | active: 39.8 µM | – |
| CC(C)Sc1nnc(NC(=O)c2ccco2)s1 | active: 25.1 µM | – |
| COc1cc(OC)cc(C(=O)Oc2ccc(/C=N/Nc3nc4ccccc4s3)cc2OC)c1 | active: 28.2 µM | – |
| CCOc1ccc(CNC(=S)N/N=C\c2ccc([N+](=O)[O-])cc2)cc1 | inconclusive: 31.6 µM [inhibitor, full curve] | – |
| CCN(CC)CCCNc1cc(C)nc2cc(-c3cccs3)nn12 | active: 44.7 µM | – |
| CCN(CC)C(=S)NC(=O)c1ccc(OC)c(Br)c1 | inconclusive: 39.8 µM [inhibitor, single point] | – |
| O=S(=O)(NCc1ccccc1)NCc1ccccc1F | inactive | – |
| COCC(C)NC(=O)CSc1nc(-c2ccccc2)c(-c2ccccc2)o1 (stereo unspecified) | inconclusive: 31.6 µM [inhibitor, single point] | – |
| Cc1ccc2c(C)c(C(=O)N3CCN(Cc4ccc5c(c4)OCO5)CC3)oc2c1C | active: 50.1 µM | – |
| Oc1c(C(c2cccs2)N2CCN(c3ccccc3)CC2)ccc2cccnc12 (stereo unspecified) | active: 1.26 µM | – |
| S=c1nc(C23CC4CC(CC(C4)C2)C3)[nH][nH]1 | inactive | – |
| CCOc1ccc(S(=O)(=O)N2CCC(C(=O)NC3CCCCC3)CC2)cc1 | inconclusive: 4.47 µM [inhibitor, partial curve] | – |
